{"source": "the supplement of paper PMC8728848", "binders": {"B1": {"name": "Annexin-A1 (Mus musculus), P10107 (protein)", "chain": "MAMVSEFLKQARFLENQEQEYVQAVKSYKGGPGSAVSPYPSFNVSSDVAALHKAIMVKGVDEATIIDILTKRTNAQRQQIKAAYLQENGKPLDEVLRKALTGHLEEVVLAMLKTPAQFDADELRGAMKGLGTDEDTLIEILTTRSNEQIREINRVYREELKRDLAKDITSDTSGDFRKALLALAKGDRCQDLSVNQDLADTDARALYEAGERRKGTDVNVFTTILTSRSFPHLRRVFQNYGKYSQHDMNKALDLELKGDIEKCLTTIVKCATSTPAFFAEKLYEAMKGAGTRHKALIRIMVSRSEIDMNEIKVFYQKKYGISLCQAILDETKGDYEKILVALCGGN"}}, "experiment_in_all_cases": "glycan array binding signal (z-score within array); higher = stronger binding", "conditions_in_all_cases": "glycan notation: IUPAC condensed, linker removed", "key": {"Fuc(a1-2)Gal": {"molecular_target": "Fuc(a1-2)Gal", "summary_of_the_method": "(§1)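 Glycan array data came from 3228 arrays in the Consortium for Functional Glycomics database, and only arrays with an available protein sequence were kept. Glycan names were put into IUPAC-condensed notation, and columns mapping to the same glycan were averaged. The binding signal is a within-array Z-score, averaged across arrays of one protein sequence run at different concentrations or buffers and across linkers. A negative Z-score can be read as non-binding.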"}, "Fuc(a1-2)Gal(b1-3)GalNAc": {"molecular_target": "Fuc(a1-2)Gal(b1-3)GalNAc", "summary_of_the_method": "as §1"}, "[1]": {"molecular_target": "Fuc(a1-2)Gal(b1-3)GalNAc(b1-3)Gal", "summary_of_the_method": "as §1"}, "[2]": {"molecular_target": "Fuc(a1-2)Gal(b1-3)GalNAc(b1-3)Gal(a1-4)Gal(b1-4)Glc", "summary_of_the_method": "as §1"}, "[3]": {"molecular_target": "Fuc(a1-2)Gal(b1-3)GalNAc(b1-3)Gal(b1-4)Glc", "summary_of_the_method": "as §1"}, "[4]": {"molecular_target": "Fuc(a1-2)Gal(b1-3)GalNAc(b1-4)[Neu5Ac(a2-3)]Gal(b1-4)Glc", "summary_of_the_method": "as §1"}, "[5]": {"molecular_target": "Fuc(a1-2)Gal(b1-3)[Fuc(a1-4)]GlcNAc", "summary_of_the_method": "as §1"}, "Fuc(a1-2)Gal(b1-4)Glc": {"molecular_target": "Fuc(a1-2)Gal(b1-4)Glc", "summary_of_the_method": "as §1"}, "Fuc(a1-2)Gal(b1-4)Glc6S": {"molecular_target": "Fuc(a1-2)Gal(b1-4)Glc6S", "summary_of_the_method": "as §1"}, "Fuc(a1-2)Gal(b1-4)GlcNAc": {"molecular_target": "Fuc(a1-2)Gal(b1-4)GlcNAc", "summary_of_the_method": "as §1"}, "[6]": {"molecular_target": "Fuc(a1-2)Gal(b1-4)GlcNAc(b1-3)Gal(b1-4)GlcNAc", "summary_of_the_method": "as §1"}, "[7]": {"molecular_target": "Fuc(a1-2)Gal(b1-4)GlcNAc(b1-3)Gal(b1-4)GlcNAc(b1-3)Gal(b1-4)GlcNAc", "summary_of_the_method": "as §1"}, "[8]": {"molecular_target": "Fuc(a1-2)Gal(b1-4)GlcNAc6S", "summary_of_the_method": "as §1"}, "[9]": {"molecular_target": "Fuc(a1-2)Gal(b1-4)[Fuc(a1-3)]GalNAc(b1-3)Gal(b1-4)[Fuc(a1-3)]GlcNAc", "summary_of_the_method": "as §1"}, "[10]": {"molecular_target": "Fuc(a1-2)Gal(b1-4)[Fuc(a1-3)]GalNAc(b1-3)Gal(b1-4)[Fuc(a1-3)]GlcNAc(b1-3)Gal(b1-4)[Fuc(a1-3)]GalNAc", "summary_of_the_method": "as §1"}, "[11]": {"molecular_target": "Fuc(a1-2)Gal(b1-4)[Fuc(a1-3)]GlcNAc", "summary_of_the_method": "as §1"}, "Fuc(a1-2)Gal6S(b1-4)Glc": {"molecular_target": "Fuc(a1-2)Gal6S(b1-4)Glc", "summary_of_the_method": "as §1"}, "[12]": {"molecular_target": "Fuc(a1-2)Gal6S(b1-4)Glc6S", "summary_of_the_method": "as §1"}, "[13]": {"molecular_target": "Fuc(a1-2)Gal6S(b1-4)GlcNAc", "summary_of_the_method": "as §1"}, "Fuc(a1-2)GlcNAc": {"molecular_target": "Fuc(a1-2)GlcNAc", "summary_of_the_method": "as §1"}, "Fuc(a1-2)[Gal(a1-3)]Gal": {"molecular_target": "Fuc(a1-2)[Gal(a1-3)]Gal", "summary_of_the_method": "as §1"}, "[14]": {"molecular_target": "Fuc(a1-2)[Gal(a1-3)]Gal(b1-3)GlcNAc", "summary_of_the_method": "as §1"}, "[15]": {"molecular_target": "Fuc(a1-2)[Gal(a1-3)]Gal(b1-4)Glc", "summary_of_the_method": "as §1"}, "[16]": {"molecular_target": "Fuc(a1-2)[Gal(a1-3)]Gal(b1-4)GlcNAc", "summary_of_the_method": "as §1"}, "[17]": {"molecular_target": "Fuc(a1-2)[Gal(a1-3)]Gal(b1-4)[Fuc(a1-3)]GlcNAc", "summary_of_the_method": "as §1"}, "[18]": {"molecular_target": "Fuc(a1-2)[Gal(a1-4)]Gal(b1-4)GalNAc", "summary_of_the_method": "as §1"}, "[19]": {"molecular_target": "Fuc(a1-2)[GalNAc(a1-3)]Gal", "summary_of_the_method": "as §1"}, "[20]": {"molecular_target": "Fuc(a1-2)[GalNAc(a1-3)]Gal(b1-3)GlcNAc", "summary_of_the_method": "as §1"}, "[21]": {"molecular_target": "Fuc(a1-2)[GalNAc(a1-3)]Gal(b1-4)Glc", "summary_of_the_method": "as §1"}, "[22]": {"molecular_target": "Fuc(a1-2)[GalNAc(a1-3)]Gal(b1-4)GlcNAc", "summary_of_the_method": "as §1"}}, "note": "The list shows a part of the results.", "data": [{"binder": "B1", "values": [{"measurement": "glycan array binding signal (z-score)", "setting": "Fuc(a1-2)Gal", "result": 0.35}, {"measurement": "glycan array binding signal (z-score)", "setting": "Fuc(a1-2)Gal(b1-3)GalNAc", "result": -0.51}, {"measurement": "glycan array binding signal (z-score)", "setting": "[1]", "result": 0.204}, {"measurement": "glycan array binding signal (z-score)", "setting": "[2]", "result": -0.149}, {"measurement": "glycan array binding signal (z-score)", "setting": "[3]", "result": -0.585}, {"measurement": "glycan array binding signal (z-score)", "setting": "[4]", "result": -0.287}, {"measurement": "glycan array binding signal (z-score)", "setting": "[5]", "result": -0.686}, {"measurement": "glycan array binding signal (z-score)", "setting": "Fuc(a1-2)Gal(b1-4)Glc", "result": -0.012}, {"measurement": "glycan array binding signal (z-score)", "setting": "Fuc(a1-2)Gal(b1-4)Glc6S", "result": 1.79}, {"measurement": "glycan array binding signal (z-score)", "setting": "Fuc(a1-2)Gal(b1-4)GlcNAc", "result": -0.292}, {"measurement": "glycan array binding signal (z-score)", "setting": "[6]", "result": -0.021}, {"measurement": "glycan array binding signal (z-score)", "setting": "[7]", "result": -0.656}, {"measurement": "glycan array binding signal (z-score)", "setting": "[8]", "result": 0.24}, {"measurement": "glycan array binding signal (z-score)", "setting": "[9]", "result": 0.2}, {"measurement": "glycan array binding signal (z-score)", "setting": "[10]", "result": -0.308}, {"measurement": "glycan array binding signal (z-score)", "setting": "[11]", "result": -0.239}, {"measurement": "glycan array binding signal (z-score)", "setting": "Fuc(a1-2)Gal6S(b1-4)Glc", "result": -0.374}, {"measurement": "glycan array binding signal (z-score)", "setting": "[12]", "result": 1.58}, {"measurement": "glycan array binding signal (z-score)", "setting": "[13]", "result": -0.152}, {"measurement": "glycan array binding signal (z-score)", "setting": "Fuc(a1-2)GlcNAc", "result": -0.535}, {"measurement": "glycan array binding signal (z-score)", "setting": "Fuc(a1-2)[Gal(a1-3)]Gal", "result": -0.42}, {"measurement": "glycan array binding signal (z-score)", "setting": "[14]", "result": -0.619}, {"measurement": "glycan array binding signal (z-score)", "setting": "[15]", "result": 0.19}, {"measurement": "glycan array binding signal (z-score)", "setting": "[16]", "result": -0.684}, {"measurement": "glycan array binding signal (z-score)", "setting": "[17]", "result": -0.018}, {"measurement": "glycan array binding signal (z-score)", "setting": "[18]", "result": -0.522}, {"measurement": "glycan array binding signal (z-score)", "setting": "[19]", "result": -0.448}, {"measurement": "glycan array binding signal (z-score)", "setting": "[20]", "result": -0.149}, {"measurement": "glycan array binding signal (z-score)", "setting": "[21]", "result": 0.169}, {"measurement": "glycan array binding signal (z-score)", "setting": "[22]", "result": -0.422}]}]}
